Results reported in PubChem BioAssay AID488969 (Vanderbilt High Throughput Screening Facility, 2010).
Over roughly 110,000 compounds, “z-score” has its median near -0.1; the highest 2% begin near 2. The list shows a part of the results. The source made the active and inactive calls.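 How the source made its calls: active means z-score in the third read window above 3 or below -3; inactive means the rest.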

What follows are compounds tested against Metabotropic glutamate receptor 8 (Rattus norvegicus) (UniProt P70579) (assay: rat mGluR8 modulators via GIRK flux, primary screen, cell-based, thallium flux, HTS (AID 488969)). Conditions: HEK293 rat mGluR8, GIRK (G protein-gated inwardly rectifying potassium channel) thallium flux, FluoZin2; at 10 µM; stronger effect = higher value; submaximal glutamate (EC20) added with thallium.
UniProt P70579, sequence (P70579 whole entry, looked up): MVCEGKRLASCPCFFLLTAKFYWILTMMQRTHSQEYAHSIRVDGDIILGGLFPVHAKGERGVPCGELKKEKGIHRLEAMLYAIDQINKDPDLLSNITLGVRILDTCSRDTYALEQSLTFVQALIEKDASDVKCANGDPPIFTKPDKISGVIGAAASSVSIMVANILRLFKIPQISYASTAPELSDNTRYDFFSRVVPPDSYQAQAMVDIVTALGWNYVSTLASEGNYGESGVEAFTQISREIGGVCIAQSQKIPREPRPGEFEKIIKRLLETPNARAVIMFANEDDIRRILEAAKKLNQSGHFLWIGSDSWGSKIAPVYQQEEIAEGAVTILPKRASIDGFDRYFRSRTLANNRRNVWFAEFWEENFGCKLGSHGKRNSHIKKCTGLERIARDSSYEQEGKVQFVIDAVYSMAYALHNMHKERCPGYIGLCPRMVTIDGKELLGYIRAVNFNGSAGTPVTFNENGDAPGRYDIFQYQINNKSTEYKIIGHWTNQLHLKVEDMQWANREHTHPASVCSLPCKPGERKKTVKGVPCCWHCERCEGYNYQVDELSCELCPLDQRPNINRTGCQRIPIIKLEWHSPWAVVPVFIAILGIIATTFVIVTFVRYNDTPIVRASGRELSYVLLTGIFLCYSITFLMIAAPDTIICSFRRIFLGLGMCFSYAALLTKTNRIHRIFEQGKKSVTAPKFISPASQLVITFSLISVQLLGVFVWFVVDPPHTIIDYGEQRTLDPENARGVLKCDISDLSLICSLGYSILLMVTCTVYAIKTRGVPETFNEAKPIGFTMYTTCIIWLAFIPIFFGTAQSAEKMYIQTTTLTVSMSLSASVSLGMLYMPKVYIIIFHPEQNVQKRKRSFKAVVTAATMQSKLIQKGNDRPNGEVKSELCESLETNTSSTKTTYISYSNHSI
With `COc1ccc(C2CC(C(F)(F)F)n3ncc(C(=O)O)c3N2)cc1OC` (configuration not stated) the z-score was 0.197.
`CN(CCNC(=O)c1ccc(/C=N/O)nc1)Cc1ccccc1` was tested, and the z-score was -0.17.
`COc1cccc(NC(=O)c2oc3ccccc3c2NC(C)=O)c1` showed a z-score of -0.17.
`O=C(COC(=O)CCC1CCCC1)Nc1ccc(Cl)cc1F` was tested, and the z-score was -0.306.
With `O=S(=O)(Cc1ccccc1)N1CCN(Cc2ccc3c(c2)OCO3)CC1` the z-score was -0.244.
`CC(=O)Nc1ccc(-c2nnc(SCC(=O)n3c4c(c5ccccc53)CCCC4)n2C)cc1` showed a z-score of -0.361.
With `O=C(NCCN1CCOCC1)C1CCN(c2ncnc3c2sc2cccc(F)c23)CC1` the z-score was -0.949.
With `CCOC(=O)C(C)Oc1cccc2c(=O)n(CC(=O)N3CCCc4ccccc43)ccc12` (configuration not stated) the z-score was -0.762.
`Cc1ccc(-c2nnc(-c3ccccc3)c(N3CCOCC3)n2)cc1` showed a z-score of 0.194.
`Cc1cc(OCC[N+]2(C)CCCCC2)nc2ccccc12` was tested, and the z-score was 0.0466.
`CCC(CC)NC(=O)Cc1ccccc1[N+](=O)[O-]` was tested, and the z-score was 0.0136.
In the case of `COC(=O)c1cc(C(=O)OC)cc(N2C(=O)CC(N3CCN(c4ccccc4)CC3)C2=O)c1` (configuration not stated), the z-score is reported as 0.214.
`COc1nc(NCCO)nc(Nc2ccc([N+](=O)[O-])cc2)n1` gave a z-score of -0.159.
`Cc1ccc2c(c1)NC(=O)C(CC(=O)O)O2` (configuration not stated) showed a z-score of -0.175.
In the case of `Cc1ccnc(SCC(=O)N2CCN(c3cccc(Cl)c3)CC2)n1`, the z-score is reported as -0.324.
Work on `CCOc1ccc(NC(=O)c2ccc3c(c2)N(Cc2ccc(F)cc2)C(=O)CS3=O)cc1` (configuration not stated) yielded a z-score of -0.201.
Compound `CC1(C)CC(=O)c2sc(NC(=O)c3cccs3)nc2C1` has a z-score of -0.0824.
With `C=CCN1CN(Cc2ccco2)CNC1=S` the z-score was 0.23.
`Cc1ccc(NC(=O)Cc2ccc3c(c2)CCCC3)cc1C` showed a z-score of 0.121.
`CCOc1ccc(C(=O)Nc2nccs2)cc1[N+](=O)[O-]` gave a z-score of -0.266.
In the case of `C#CCSc1nccc(-c2nn(-c3ccc(C)cc3)ccc2=O)n1`, the z-score is reported as -0.477.
For `O=C(NC(=S)Nc1ccc(N2CCCCC2)cc1)c1ccc2c(c1)OCCO2`, the z-score was 0.0318.
With `CC(O)(C#CCN1CCCCC1)c1ccccc1` (configuration not stated) the z-score was -0.0414.
For `Cc1ccccc1OCCOc1cccc(/C=N/NC(=O)Cc2nnc(N)s2)c1`, the z-score was -0.406.
Compound `CCCCCn1c(SCC2CCCO2)nc2cc(C(=O)N3CCC(C(N)=O)CC3)ccc2c1=O` (configuration not stated) has a z-score of -0.409.
Compound `Cc1ccc(NC(=O)c2ccc(CSc3nnc(C)s3)cc2)cc1` has a z-score of 0.00986.
Compound `CN(C)CCNC(=O)c1cc(Br)ccc1Cl` has a z-score of 0.194.
Work on `COc1ccc2[nH]c3c(=O)n(N)c(C)nc3c2c1` yielded a z-score of -0.355.
`O=C(c1ccco1)N1CCN(S(=O)(=O)c2ccc(Br)s2)CC1` showed a z-score of -0.168.
`Cc1sc(NC(=O)CSC2=NCCS2)nc1-c1ccccc1` was tested, and the z-score was 0.623.
`O=C1Nc2ccc(S(=O)(=O)N3CCCC3)c3cccc1c23` was tested, and the z-score was 0.152.
In the case of `COc1ccccc1C1CC(c2ccc(F)cc2)Nc2ncnn21` (configuration not stated), the z-score is reported as -0.499.
In the case of `CCC(=O)Nc1ccc(C(=O)N/N=C/c2cc(Br)c(OC)cc2OC)cc1`, the z-score is reported as -0.162.
`O=C(NCC1CCCCC1)C12CN(Cc3ccccc3)CC1C(c1cccc([N+](=O)[O-])c1)=NO2` (configuration not stated) gave a z-score of -0.253.
For `COc1ccc(CN(CC(=O)NCc2ccco2)C(=O)CCC(=O)Nc2nccs2)cc1`, the z-score was 0.164.
Work on `Cc1ccc(OCC(=O)N2CCN(S(=O)(=O)c3ccc(Cl)cc3)CC2)c([N+](=O)[O-])n1` yielded a z-score of -0.537.
`O=C(NCc1cccnc1)c1c(F)c(F)c(F)c(F)c1F` showed a z-score of -0.459.
With `Cc1ccccc1/[N+]([O-])=C/c1ccncc1` the z-score was 0.142.
`CSC1CCCCC1(O)CSc1nc2c(cc1C#N)CCCC2` (configuration not stated) gave a z-score of -0.0226.
With `Cc1ccc(Cl)cc1N1CCN(S(=O)(=O)c2c(C)[nH]c(=O)[nH]c2=O)CC1` the z-score was 0.0549.
Work on `COC(=O)c1cccc(NC(=O)CCc2cc(OC)c(OC)c(OC)c2)c1` yielded a z-score of 0.0427.
`CCN(CC)c1ccc(C(=O)Nc2cccc(F)c2)cc1` showed a z-score of -0.609.
`COc1cccc(N=Nc2c(=O)[nH]n3c(C)cc(C)nc23)c1` gave a z-score of -0.00267.
For `CCOC(=O)C1=C(C)N(c2nonc2NC(C)=O)C(N)=C(C#N)C1c1ccccc1F` (configuration not stated), the z-score was 0.995.
Work on `CC(=O)Nc1cc(NC(C)=O)cc(C(=O)OCC(=O)N2CC(C)OC(C)C2)c1` (configuration not stated) yielded a z-score of -0.109.
`CCOC(=O)c1c(NC(=S)NC)sc2c1CC(C)(C)SC2` was tested, and the z-score was active: 12.5.
Work on `CCOc1ccc(-c2nnn(CC(=O)c3ccc4c(c3)OCCO4)n2)cc1OCC` yielded a z-score of -0.694.
Compound `CC(/C=N\NC(=O)CN1CCN(S(=O)(=O)c2ccc(C)cc2)CC1)=C\c1ccccc1` has a z-score of -0.33.
In the case of `CCN1C(=O)C(NC(C)=O)c2cc(Br)ccc21` (configuration not stated), the z-score is reported as 1.19.
For `COc1c(C)cc(Br)cc1C(=O)Nc1cccc(NC(=O)c2ccco2)c1`, the z-score was -1.53.
`C=CCOC(=O)C1=C(C)Nc2ncnn2C1c1cccs1` (configuration not stated) gave a z-score of -2.14.
`O=C1COc2ccc(C(=O)/C=C/c3ccccc3)cc2N1` gave a z-score of -0.156.
In the case of `COc1ccccc1Cc1nc(-c2ccc(C)cc2)no1`, the z-score is reported as -0.218.
`Cc1ncoc1C(=O)Nc1cccc(Cl)c1C` showed a z-score of 0.581.
`CC(=O)Nc1cc(C(=O)N2CCN(C)CC2)ccc1S(=O)(=O)c1ccc(C)cc1` gave a z-score of 0.0185.
`COc1ccc2ccccc2c1/C=N\n1c(C)cc(C)c(C(N)=O)c1=O` gave a z-score of 0.345.
For `COC(=O)CSc1cc(C)nc(SC)n1`, the z-score was 0.243.
With `CCc1ccccc1NC(=O)CN(C)C(=O)CSc1nc2cc(Cl)ccc2s1` the z-score was -0.3.
`CC1CCCCN1Cc1ccc(N)cc1` (configuration not stated) gave a z-score of 0.26.
`Cc1ccc(OC(=O)CCc2c(C)nc3ncnn3c2C)cc1` showed a z-score of -0.382.
For `CCN(CC)S(=O)(=O)c1ccc(Nc2ccc(-c3ccc4c(c3)OCCO4)nn2)cc1`, the z-score was 0.132.
Compound `O=C(CSc1nnc(-c2cc(-c3cccs3)nc3ccccc23)o1)NC1CCCCC1` has a z-score of -0.136.
`CCCN(C#N)c1nc(NCC)nc(NC(C)C)n1` showed a z-score of 0.86.
Work on `CCCNC(=S)N1CCC(NC(=O)C2CCCCC2)CC1` yielded a z-score of 0.042.
Compound `Cc1cc(C)n2nc(C(=O)OCC(=O)Nc3ccc4c(c3)OC(F)(F)O4)nc2n1` has a z-score of -0.0308.
In the case of `COc1ccccc1/C=C(/C(=O)OCC(=O)N(C)Cc1ccccc1)c1ccccc1`, the z-score is reported as -0.318.
Compound `Cc1nc2ccccc2n1CC(O)Cn1c2ccccc2c2ccccc21` (configuration not stated) has a z-score of 0.752.
`CCCC(CCC)=NNC(=O)CN(Cc1ccccc1)S(=O)(=O)c1ccccc1` was tested, and the z-score was -0.537.
`O=c1[nH]ncc(NCCCO)c1Cl` showed a z-score of -0.683.
For `COc1ccc(C(=O)Nc2cc3c(cc2Cl)OCCCO3)cc1`, the z-score was -0.49.
`CCCCOP(=O)(c1ccc(N(C)C)cc1)C(O)c1ccccc1F` (configuration not stated) gave a z-score of -0.233.
With `CCCN(CCC)C(=O)CCSCCC(=O)N(CCC)CCC` the z-score was -0.0331.
`C/C(N)=C(/C#N)C(=O)COC(=O)CC12CC3CC(CC(C3)C1)C2` was tested, and the z-score was 0.725.
`CCN(CC)S(=O)(=O)c1ccc(C)c(NC(=O)COc2ccc(Br)cc2Cl)c1` gave a z-score of 0.0626.
`CC(=O)c1c(C)[nH]c(C(=O)OC2CCCCC2=O)c1C` (configuration not stated) showed a z-score of 0.176.
`COc1ccc(C(=O)CSc2nnc(COc3ccc(C#N)cc3)n2-c2ccccc2)cc1` showed a z-score of -0.43.
`CC(C)(C)OC(=O)N1CCN(c2ccc(CNC(=O)c3ccc(Cl)cc3)cc2)CC1` gave a z-score of -0.0306.
Work on `Cc1ccc(CSCCNC(=O)CSCc2ccc([N+](=O)[O-])cc2)cc1` yielded a z-score of -0.519.
With `C=CCNc1nc(SC)nc2ccsc12` the z-score was -0.152.
Work on `CSc1nc(N2CCOCC2)c2ccccc2n1` yielded a z-score of -1.07.
`CCn1cc(C(=O)N2CCN(Cc3ccc4c(c3)OCO4)CC2)c2cc(OC)c(OC)cc2c1=O` gave a z-score of -0.76.
For `Cc1cc(=O)oc(C)c1C(=O)Nc1ccc2nsnc2c1`, the z-score was -0.238.
`CC1(C)CC(=O)C(C#N)=C(NCCCO)C1` gave a z-score of -0.262.
`Cc1ccc(CN2CCN(CC(=O)N/N=C/c3c[nH]c4ccccc34)CC2)cc1` showed a z-score of -0.216.
Work on `CC(=O)c1sc(NC(=O)c2ccc(Cn3cc(Br)cn3)o2)nc1C` yielded a z-score of 1.62.
Compound `C=CCNC(=S)N1CCC(C(=O)c2ccc(OC)cc2)CC1` has a z-score of -0.145.
`C=C(C)C(=O)Nc1ccc(OC(F)(F)C(F)F)c(NC(=O)C(=C)C)c1` showed a z-score of 0.507.
`COc1ccc(CCn2c(C)cc(C(=O)CSc3nnnn3-c3ccccc3)c2C)cc1OC` was tested, and the z-score was -0.0773.
In the case of `O=C(CN1CCN(S(=O)(=O)c2ccc3ccccc3c2)CC1)Nc1ccc2c(c1)CCC2`, the z-score is reported as -0.0294.
Work on `CCOC(=O)c1sc2nc(N3CCOCC3)c3c(c2c1N)CCCC3` yielded a z-score of -0.026.
`CC1=C(C(=O)Nc2ccccc2C)C(c2cccnc2)n2nc(CCCO)nc2N1` (configuration not stated) gave a z-score of -0.0856.
`Cc1cc(C(=O)NN)c2cc(Br)ccc2n1` was tested, and the z-score was -0.118.
With `NNc1nc2c(Cl)ccc(Cl)c2s1` the z-score was -0.00578.
`O=C(CSc1nnc(-c2ccccc2Br)o1)Nc1cccc2ccccc12` was tested, and the z-score was -0.465.
With `Cc1nnc(NCCO)c2ccccc12` the z-score was -0.3.
In the case of `CC1CCCN(C2=NC(=O)/C(=C/c3cn(-c4ccccc4)nc3-c3cccc(S(=O)(=O)N(C)C)c3)S2)C1` (configuration not stated), the z-score is reported as 0.104.
`CCCN(CCC)c1nc(NC2CCN(C(=O)OCC)CC2)nc(OC)n1` showed a z-score of -0.1.
For `COc1ccc(NC(=O)CSc2nnc(CNc3ccc(F)cc3)o2)c(OC)c1`, the z-score was -0.241.
With `O=C(N/N=C/c1cccc([N+](=O)[O-])c1)c1cc(-c2ccc3c4c(cccc24)CC3)n[nH]1` the z-score was -0.26.
For `COCCNS(=O)(=O)c1cc(F)ccc1OC`, the z-score was -0.0485.
For `O=C1C2C3C=CC(O3)C2C(=O)N1CC(O)c1ccccc1` (configuration not stated), the z-score was -0.327.
With `CNC(=O)CC(C(=O)O)c1ccc(OC(C)C)cc1` (configuration not stated) the z-score was 0.165.
`CC1CN(Cc2ccccc2Cl)CC(C)O1` (configuration not stated) gave a z-score of -0.405.
Compound `NC(CC(=O)OC1CCCCC1)C(=O)OC1CCCCC1` (configuration not stated) has a z-score of -0.287.
Work on `COC(=O)c1ccc(Cl)c(NC(=O)CSc2ncn[nH]2)c1` yielded a z-score of -0.0241.
In the case of `CCc1cc(=O)n2c([nH]c3ccccc32)c1C#N`, the z-score is reported as 0.126.
`COc1ccc(/C=N/Nc2nccnc2Cl)cc1` gave a z-score of 0.871.
Work on `O=C(NCCN1CCCC1)c1ccc2c(=O)n(CCc3ccccc3)c(=O)[nH]c2c1` yielded a z-score of 1.17.
`O=C(O)CNC(=O)CCN1C(=O)c2ccccc2C1=O` showed a z-score of -0.152.
`C/C(=N\NC(=O)c1ccc(CSc2nc(C)cc(C)n2)cc1)C1CCCCC1` showed a z-score of -0.246.
For `O=C(NC(=S)Nc1ccc(S(=O)(=O)Nc2nccs2)cc1)c1ccccc1`, the z-score was 0.116.
For `CCN(CC)CC(C)CNC(=O)CC(C(=O)N1CCc2ccccc21)n1ccnc1` (configuration not stated), the z-score was -0.405.
